# Reference: the supplement of paper PMC8728848
# The other results are listed elsewhere or left out.
# B1: ZG-16 (Homo sapiens), O60844 (protein)
# chain: IQARSSSYSGEYGSGGGKRFSHSGNQLDGPITALRVRVNTYYIVGLQVRYGKVWSDYVGGRNGDLEEIFLHPGESVIQVSGKYKWYLKKLVFVTDKGRYLSFGKDSGTSFNAVPLHPNTVLRFISGRSGSLIDAIGLHWDVYPTSCSRCSRGSDDDDKAEPRGPTIKPCPPCKCPAPNLLGGPSVFIFPPKIKDVLMISLSPIVTCVVVDVSEDDPDVQISWFVNNVEVHTAQTQTHREDYNSTLRVVSALPIQHQDWMSGKEFKCKVNNKDLPAPIERTISKPKGSVRAPQVYVLPPPEEEMTKKQVTLTCMVTDFMPEDIYVEWTNNGKTELNYKNTEPVLDSDGSYFMYSKLRVEKKNWVERNSYSCSVVHEGLHNHHTTKSFSRTPGKRTYHHHHHHARKLTR
# Assays:
# Assay in all cases: glycan array binding signal (z-score within array); higher = stronger binding
# Settings in all cases: glycan notation: IUPAC condensed, linker removed
# [1] = molecular target: Kdn(a2-3)Gal(b1-4)[Fuc(a1-3)]GlcNAc
# Outline: (§1)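 The binding signal is a Z-score computed within each array. Data were drawn from 3228 arrays in the Consortium for Functional Glycomics database, restricted to those with a known protein sequence. Scores were averaged over arrays of the same protein sequence at different concentrations or buffers, and over linkers, and negative values can be taken as non-binding.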
# [2] = molecular target: Kdn(a2-6)Gal(b1-4)GlcNAc
# Outline: as §1
# [3] = molecular target: Man(a1-2)Man(a1-2)Man(a1-3)Man
# Outline: as §1
# [4] = molecular target: Man(a1-2)Man(a1-2)Man(a1-6)[Man(a1-3)]Man
# Outline: as §1
# [5] = molecular target: Man(a1-2)Man(a1-3)Man
# Outline: as §1
# [6] = molecular target: Man(a1-2)Man(a1-3)[Man(a1-2)Man(a1-6)]Man
# Outline: as §1
# [7] = molecular target: Man(a1-2)Man(a1-3)[Man(a1-2)Man(a1-6)]Man(a1-6)[Man(a1-2)Man(a1-2)Man(a1-3)]Man
# Outline: as §1
# [8] = molecular target: Man(a1-2)Man(a1-3)[Man(a1-2)Man(a1-6)]Man(a1-6)[Man(a1-2)Man(a1-2)Man(a1-3)]Man(b1-4)GlcNAc(b1-4)GlcNAc
# Outline: as §1
# [9] = molecular target: Man(a1-2)Man(a1-3)[Man(a1-6)]Man(a1-6)[Man(a1-2)Man(a1-3)]Man(b1-4)GlcNAc(b1-4)GlcNAc
# Outline: as §1
# [10] = molecular target: Man(a1-2)Man(a1-6)[Man(a1-3)]Man(a1-6)[Man(a1-2)Man(a1-2)Man(a1-3)]Man
# Outline: as §1
# [11] = molecular target: Man(a1-2)Man(a1-6)[Man(a1-3)]Man(a1-6)[Man(a1-2)Man(a1-2)Man(a1-3)]Man(b1-4)GlcNAc(b1-4)GlcNAc
# Outline: as §1
# [12] = molecular target: Man(a1-3)[Man(a1-6)]Man
# Outline: as §1
# [13] = molecular target: Man(a1-3)[Man(a1-6)]Man(a1-6)[Man(a1-2)Man(a1-3)]Man(b1-4)GlcNAc(b1-4)GlcNAc
# Outline: as §1
# [14] = molecular target: Man(a1-3)[Man(a1-6)]Man(a1-6)[Man(a1-3)]Man
# Outline: as §1
# [15] = molecular target: Man(a1-3)[Man(a1-6)]Man(a1-6)[Man(a1-3)]Man(b1-4)GlcNAc(b1-4)GlcNAc
# Outline: as §1
# [16] = molecular target: Man(a1-3)[Man(a1-6)]Man(b1-4)GlcNAc(b1-4)GlcNAc
# Outline: as §1
# [17] = molecular target: Man(a1-6)Man
# Outline: as §1
# [18] = molecular target: Man(b1-4)GlcNAc
# Outline: as §1
# [19] = molecular target: Neu5Ac(a2-3)Gal
# Outline: as §1
# [20] = molecular target: Neu5Ac(a2-3)Gal(b1-3)GalNAc
# Outline: as §1
# [21] = molecular target: Neu5Ac(a2-3)Gal(b1-3)GalNAc(b1-3)Gal(a1-4)Gal(b1-4)Glc
# Outline: as §1
# [22] = molecular target: Neu5Ac(a2-3)Gal(b1-3)GalNAc(b1-4)[Neu5Ac(a2-3)]Gal(b1-4)Glc
# Outline: as §1
# [23] = molecular target: Neu5Ac(a2-3)Gal(b1-3)GalNAc6S
# Outline: as §1
# [24] = molecular target: Neu5Ac(a2-3)Gal(b1-3)GlcNAc
# Outline: as §1
# [25] = molecular target: Neu5Ac(a2-3)Gal(b1-3)GlcNAc(b1-2)Man(a1-3)[Neu5Ac(a2-3)Gal(b1-3)GlcNAc(b1-2)Man(a1-6)]Man(b1-4)GlcNAc(b1-4)GlcNAc
# Outline: as §1
# [26] = molecular target: Neu5Ac(a2-3)Gal(b1-3)GlcNAc(b1-3)Gal(b1-3)GlcNAc
# Outline: as §1
# [27] = molecular target: Neu5Ac(a2-3)Gal(b1-3)GlcNAc(b1-3)Gal(b1-4)GlcNAc
# Outline: as §1
# [28] = molecular target: Neu5Ac(a2-3)Gal(b1-3)GlcNAc(b1-3)GalNAc
# Outline: as §1
# [29] = molecular target: Neu5Ac(a2-3)Gal(b1-3)GlcNAc6S
# Outline: as §1
# [30] = molecular target: Neu5Ac(a2-3)Gal(b1-3)[Fuc(a1-4)]GlcNAc
# Outline: as §1
# [31] = molecular target: Neu5Ac(a2-3)Gal(b1-3)[Fuc(a1-4)]GlcNAc(b1-3)Gal(b1-3)[Fuc(a1-4)]GlcNAc
# Outline: as §1
# [32] = molecular target: Neu5Ac(a2-3)Gal(b1-3)[Fuc(a1-4)]GlcNAc(b1-3)Gal(b1-4)[Fuc(a1-3)]GlcNAc
# Outline: as §1
# [33] = molecular target: Neu5Ac(a2-3)Gal(b1-3)[Neu5Ac(a2-3)Gal(b1-4)]GlcNAc
# Outline: as §1
# [34] = molecular target: Neu5Ac(a2-3)Gal(b1-3)[Neu5Ac(a2-6)]GalNAc
# Outline: as §1
# [35] = molecular target: Neu5Ac(a2-3)Gal(b1-4)Glc
# Outline: as §1
binder,measurement,setting,value
B1,glycan array binding signal (z-score),[1],-0.167
same,glycan array binding signal (z-score),[2],-0.163
same,glycan array binding signal (z-score),[3],8.34
same,glycan array binding signal (z-score),[4],5.61
same,glycan array binding signal (z-score),[5],9.52
same,glycan array binding signal (z-score),[6],3.69
same,glycan array binding signal (z-score),[7],1.94
same,glycan array binding signal (z-score),[8],0.19
same,glycan array binding signal (z-score),[9],-0.082
same,glycan array binding signal (z-score),[10],5.95
same,glycan array binding signal (z-score),[11],-0.145
same,glycan array binding signal (z-score),[12],4.25
same,glycan array binding signal (z-score),[13],-0.041
same,glycan array binding signal (z-score),[14],1
same,glycan array binding signal (z-score),[15],0.09
same,glycan array binding signal (z-score),[16],-0.183
same,glycan array binding signal (z-score),[17],1.35
same,glycan array binding signal (z-score),[18],-0.143
same,glycan array binding signal (z-score),[19],-0.184
same,glycan array binding signal (z-score),[20],-0.217
same,glycan array binding signal (z-score),[21],-0.144
same,glycan array binding signal (z-score),[22],-0.163
same,glycan array binding signal (z-score),[23],-0.177
same,glycan array binding signal (z-score),[24],-0.105
same,glycan array binding signal (z-score),[25],-0.186
same,glycan array binding signal (z-score),[26],-0.133
same,glycan array binding signal (z-score),[27],-0.202
same,glycan array binding signal (z-score),[28],-0.209
same,glycan array binding signal (z-score),[29],-0.169
same,glycan array binding signal (z-score),[30],-0.202
same,glycan array binding signal (z-score),[31],-0.208
same,glycan array binding signal (z-score),[32],-0.201
same,glycan array binding signal (z-score),[33],-0.177
same,glycan array binding signal (z-score),[34],-0.126
same,glycan array binding signal (z-score),[35],-0.181
